Source: PubChem BioAssay AID686971 (National Center for Advancing Translational Sciences (NCATS), 2013)
The campaign covered roughly 360,000 compounds. About 7,500 (2.1%) were called active. The shares of active, inactive and inconclusive entries below differ from those in the screen. The call rests on the fitted dose curve; in most records, active means well fitted cell-killing curve with a large enough effect; inconclusive means small, poorly fitted or top-dose-only effect, or effect the other way, or another doubt; inactive means no such curve, though single readings can be large or run the other way. No potency is given beside an inconclusive call; the fits are too rough.

assay: qHTS for induction of synthetic lethality in tumor cells producing 2HG: qHTS for the HT-1080-IDH1KD cell line; details: HT-1080 IDH1 knockdown viability, ATP luminescence, 48 h; activity, negative = toxicity: at 46.1 µM (top of the series) unless noted;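 on activity, negative = toxicity: 0% = DMSO wells and -100% = cell-free medium wells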
Procedure, shortened: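 IDH1KD HT-1080 cells, 750/well, RPMI + 5% FBS; compound pinned after 2 h settling; 48 h, 37 °C; CellTiter-Glo luminescence; % activity normalised to DMSO and no-cell wells; curves fitted, classed by r2 and efficacy.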
Potency means the concentration at half of the fitted maximal effect; tags describe the fitted curve by direction and shape.

Row | Structure (SMILES) | Potency | activity, negative = toxicity
1 | CC(=O)Nc1ccc(Oc2cc(C#N)c(C#N)cc2N2CCCCCC2)cc1 | inconclusive [cytotoxic, single point] | 
2 | O=C(NCC(c1cccs1)N1CCOCC1)c1ccc(Cl)cc1 (stereo unspecified) | inconclusive [cytotoxic, single point] | 
3 | Cc1ccc(NC(=O)Cn2cnc3c(NCc4ccccc4)ncnc32)cc1C |  | inactive: 6.27%
4 | COc1ccc(NC(=O)C(Cl)=C(Cl)Cl)cn1 | active: 23.1 µM | 
5 | O=C(NNC1=NCCC1)C1CC1 |  | inactive: 8.55%
6 | Cc1cn([C@H]2C[C@H](O)[C@@H](CNCc3ccc(CN(C)S(C)(=O)=O)o3)O2)c(=O)[nH]c1=O |  | inactive: 1.72%
7 | CCN(CC)CCc1c(C)[nH]c(C(=O)OCc2ccccc2)c1C | inconclusive [cytotoxic, single point] | 
8 | CC(=O)c1cccc(-c2cnc3c(NC=O)cc(-c4ccc(C(=O)N5CCOCC5)cc4)cn23)c1 |  | inactive: -29.4%
9 | CC(=O)N1CCC[C@H]1C(=O)O |  | inactive: -4.13%
10 | NS(=O)(=O)c1ccc(CCNC(c2ccccc2)c2ccccc2)cc1 |  | inactive: -24.9%
11 | COc1ccc(Cl)cc1NC(=O)CN(C)C(=O)c1ccc(C)s1 |  | inactive: -1.12%
12 | Cc1cccc(-c2nsc(SCC(=O)N3CCCC3)n2)c1 |  | inactive: -3.95%
13 | COc1ccc(S(=O)(=O)Nc2ccc3c(c2)CC(=O)N([C@@H](C)CO)C[C@@H](C)[C@@H](CN(C)Cc2ccccc2)O3)cc1 |  | inactive: -8.7%
14 | FC(F)(F)Oc1ccccc1C(c1nnnn1C1CCCC1)N1CCN(C/C=C/c2ccccc2)CC1 (stereo unspecified) | inconclusive [cytotoxic, single point] | 
15 | COc1ccc(NS(=O)(=O)c2ccc(N3CCOCC3)c(NC(=O)c3ccc(F)cc3)c2)cc1 | inconclusive [cytotoxic, partial curve] | 
16 | CCOc1ccc(NS(=O)(=O)c2ccc(C(=O)NCC(c3ccco3)N3CCCCC3)cc2)cc1 (stereo unspecified) | inconclusive [cytotoxic, single point] | 
17 | COc1ccc(-c2csc(NC(=O)CSc3nnc(Nc4ccccc4C)s3)n2)cc1 | active: 20.6 µM | 
18 | CCCC(=O)NC(=S)Nc1cccc(Cl)c1N1CCCC1 | inconclusive [cytotoxic, single point] | 
19 | O=C(O)c1ccc(-c2nc(-c3ccccc3)c(-c3cccs3)[nH]2)cc1 |  | inactive: 9.66%
20 | CC1CCCN(c2ccc(C(=O)Nc3ccc4c(c3)OCO4)cc2[N+](=O)[O-])C1 (stereo unspecified) |  | inconclusive: -19.5% [cytotoxic]
21 | CCCCCCCCN1C(=O)[C@H](CC(=O)NCc2cccs2)C[C@@]2(C(=O)OCC)CCCC=C12 | inconclusive [cytotoxic, single point] | 
22 | COc1ccc(NS(=O)(=O)c2cccc(NC(=O)C3=NN(c4ccccc4)C(=O)CC3)c2)cc1 | inconclusive [cytotoxic, single point] | 
23 | COc1ccc(CNC(=O)CN(C(=O)CCC(=O)Nc2ccccn2)c2cccc(C)c2C)cc1 |  | inactive: -1.66%
24 | CC(C)(c1ccccc1)c1ccc(OCCCN2CCNCC2)cc1 | active: 20.6 µM | 

Row | Structure (SMILES) | Potency | activity, negative = toxicity
25 | N/C(=N\OC(=O)c1cc(-c2ccccc2)nc2ccccc12)c1cccnc1 |  | inactive: 10.7%
26 | CCC(C(=O)N1CCC(N2CCCCC2)CC1)n1nc(C)c2sc3ccccc3c2c1=O (stereo unspecified) |  | inactive: -0.44%
27 | CCC(=O)N1CCc2cc(S(=O)(=O)Nc3ccc4c(c3)OCCO4)ccc21 | inconclusive [cytotoxic, single point] | 
28 | COc1ccc(-c2nnc3c4ccccc4c(C)nn23)cc1 | inconclusive [cytotoxic, single point] | 
29 | COc1ccccc1CC(=O)Nc1ccc(-c2noc(COc3cccc(C)c3C)n2)cc1 |  | inactive: -6.42%
30 | CCOC(=O)N1CCN(c2ccc(S(=O)(=O)N3CCC(C)CC3)cc2[N+](=O)[O-])CC1 | inconclusive [cytotoxic, single point] | 
31 | Cn1c(/C=N/n2cnnc2)nc2ccccc21 | inconclusive [cytotoxic, partial curve, poor fit] | 
32 | CC(CCCN1CCCC1)Nc1ccnc2cc(Cl)ccc12 (stereo unspecified) | inconclusive [cytotoxic, partial curve] | 
33 | OC(c1ccccc1)(c1nc(/C=C/c2ccc(C(F)(F)F)cc2)cs1)C(F)(F)F (stereo unspecified) | inconclusive [cytotoxic, single point] | 
34 | CC(C)(C)c1ccc(/C=C/C(=O)Nc2cccnc2)cc1 | inconclusive [cytotoxic, single point] | 
35 | Cc1ccc2[nH]c(C)c(/C=N/Nc3nc4ccccc4s3)c2c1 | inconclusive [cytotoxic, single point] | 
36 | O=C(NCC(O)c1ccccc1)c1ccc(Cl)c(S(=O)(=O)N2CCCCC2)c1 (stereo unspecified) | inconclusive [cytotoxic, partial curve] | 
37 | CCOC(=O)C1CCN(CC(O)COC(CC)c2ccccc2)CC1 (stereo unspecified) |  | inactive: 8.54%
38 | CCCc1ccc(-c2cc(NC(=O)CSc3nnc(N)s3)n(-c3ccccc3)n2)cc1 | inconclusive [cytotoxic, single point] | 
39 | COc1ccc(OC)c(C(=O)/C=C/c2ccccc2C(F)(F)F)c1 | inconclusive [cytotoxic, single point] | 
40 | O=C(NNc1ccccc1)C(=O)NNS(=O)(=O)c1ccc(CCCl)cc1 | inconclusive [cytotoxic, single point] | 
41 | CCOC(=O)c1c(C)n(-c2ccc(OC)cc2)c2ccc(O)c(CN(C)C)c12 | active: 20.6 µM | 
42 | Cc1ccc(S(=O)(=O)Nc2cc(Cl)c(O)c3ncccc23)cc1 | inconclusive [cytotoxic, partial curve] | 
43 | Cc1c(CCOC(=O)C23CC4(C)CC(C)(CC(C)(C4)C2)C3)sc[n+]1CC(=O)c1ccccc1 | inconclusive [cytotoxic, single point] | 
44 | O=C(N/N=C/c1ccc(O)cc1O)c1ccc(NC(=O)C2CCCCC2)cc1 | active: 9.2 µM | 
45 | CCCC1(CCC)NC(=O)N(CC(=O)N2CCc3ccccc32)C1=O |  | inactive: -4.02%
46 | CCc1nc2ccc(C(=O)Nc3cccc(NS(C)(=O)=O)c3)cn2c1N(CC)Cc1cccc(Br)c1 | inconclusive [cytotoxic, single point] | 
47 | Cc1sc(NC(=O)/C=C/C(=O)O)c(C(N)=O)c1-c1ccc(C(C)(C)C)cc1 | active: 20.6 µM | 
48 | COCCN(C(=O)COC(=O)/C=C/c1nc2ccccc2s1)c1c(N)n(Cc2ccccc2)c(=O)[nH]c1=O | inconclusive [cytotoxic, single point] | 

Row | Structure (SMILES) | Potency | activity, negative = toxicity
49 | COc1ccc(OCC(=O)Nc2cc(-c3nn4c(C)nnc4s3)ccc2C)cc1 |  | inactive: 8.32%
50 | CCCC1OC(c2ccco2)OCC1CC (stereo unspecified) |  | inactive: 5.54%
51 | OC(COc1ccccc1Cl)CN1CCN(CC(O)COc2ccccc2Cl)CC1 (stereo unspecified) | inconclusive [cytotoxic, partial curve] | 
52 | Cc1ccccc1Cc1c(C)nc2nc(SCC(=O)NCc3ccco3)nn2c1C | inconclusive [cytotoxic, single point] | 
53 | Cc1[nH]n(C)c(=O)c1C(=O)c1c(-c2c(Cl)cccc2Cl)noc1C | active: 16.4 µM | 
54 | CCN1CCN(S(=O)(=O)c2ccc(Cl)c(C(=O)Nc3ccccc3N3CCCCC3)c2)CC1 | inconclusive [cytotoxic, partial curve] | 
55 | CC(C)COc1ccc(CSCCNC(=S)Nc2ccccc2)cc1 | inconclusive [cytotoxic, single point] | 
56 | COC(=O)c1c(NC(=O)C2CCCCC2)sc2c1CC(C)(C)NC2(C)C | inconclusive [cytotoxic, single point] | 
57 | Cc1cc(OCC(=O)C(C)(C)C)c2c(-c3ccccc3)cc(=O)oc2c1 |  | inactive: -9.35%
58 | CN(C)S(=O)(=O)c1ccc(C(=O)Oc2cc(=O)[nH]c3ccccc23)cc1 |  | inactive: -3%
59 | O=C(Nc1cccc(OC(F)(F)F)c1)C1Cc2c(-c3ccc4c(c3)OCO4)ccnc2O1 (stereo unspecified) | active: 23.1 µM | 
60 | COc1ccc(OCCNC(=O)c2ccc3nc(C)c(N(C)C(=O)CCc4ccccc4)n3c2)cc1 |  | inactive: 0%
61 | Cc1ccc(-c2nc(CS(=O)CC(=O)NC3CCCC(C)C3C)c(C)o2)cc1 (stereo unspecified) |  | inactive: -6.38%
62 | O=[N+]([O-])c1ccc(Oc2cccnc2)c([N+](=O)[O-])c1 | inconclusive [cytotoxic, single point] | 
63 | CCOC(=O)C1=C(CSCc2ccccc2)NC(=O)NC1c1cc(C)ccc1C (stereo unspecified) | inconclusive [cytotoxic, single point] | 
64 | Cc1ccc(CNC(=O)CSc2nc(N3CCCCC3)nc(N3CCCCC3)n2)cc1 | inconclusive [cytotoxic, single point] | 
65 | O=[N+]([O-])c1cccc(SSc2cccc([N+](=O)[O-])c2)c1 | active: 18.4 µM | 
66 | COc1ccc(C(CCNCc2ccc(N(C)C)cc2)C(C)C)cc1 (stereo unspecified) | inconclusive [cytotoxic, single point] | 
67 | COc1ccc(/C=N\NC(=O)c2ccccc2)cc1COc1ccccc1 | inconclusive [cytotoxic, single point] | 
68 | CCN(CC)C(=O)CSc1nnc(-c2ccccn2)n1Cc1ccccc1 |  | inactive: 9.5%
69 | O=C(CCCn1c(SCC(=O)c2ccc(F)cc2)nc2ccccc2c1=O)NCc1ccco1 | inconclusive [cytotoxic, single point] | 
70 | CSc1ccc(S(=O)(=O)N2c3ccccc3CC2C)cc1 (stereo unspecified) | inconclusive [cytotoxic, single point] | 
71 | COc1ccccc1/C=N\Nc1cc(C)nc(-n2nc(C)cc2C)n1 | inconclusive [cytotoxic, partial curve] | 
